# Experimental data: the supplement of paper PMC8728848
# The other results are listed elsewhere or left out.
# Assays:
# Experiment in all cases: glycan array binding signal (z-score within array); higher = stronger binding
# Details in all cases: glycan notation: IUPAC condensed, linker removed
# [1] = target: Neu5Ac(a2-3)Gal(b1-4)GlcNAc(b1-2)[Neu5Ac(a2-3)Gal(b1-4)GlcNAc(b1-4)]Man(a1-3)[GlcNAc(b1-4)][Neu5Ac(a2-3)Gal(b1-4)GlcNAc(b1-2)[Neu5Ac(a2-3)Gal(b1-4)GlcNAc(b1-6)]Man(a1-6)]Man(b1-4)GlcNAc(b1-4)GlcNAc
# Outline: (§1)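 Arrays were curated from the Consortium for Functional Glycomics database, 3228 in total, and kept only where the protein sequence was available. Binding is expressed as a within-array Z-score. This score was averaged across arrays of the same protein sequence at different concentrations or buffers and across linkers, and negative values can be read as non-binding.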
# [2] = target: Neu5Ac(a2-3)Gal(b1-4)GlcNAc(b1-2)[Neu5Ac(a2-3)Gal(b1-4)GlcNAc(b1-4)]Man(a1-3)[GlcNAc(b1-4)][Neu5Ac(a2-3)Gal(b1-4)GlcNAc(b1-4)Man(a1-6)]Man(b1-4)GlcNAc(b1-4)GlcNAc
# Outline: as §1
# [3] = target: Neu5Ac(a2-3)Gal(b1-4)GlcNAc(b1-2)[Neu5Ac(a2-3)Gal(b1-4)GlcNAc(b1-6)]Man(a1-6)[Neu5Ac(a2-3)Gal(b1-4)GlcNAc(b1-2)Man(a1-3)]Man(b1-4)GlcNAc(b1-4)GlcNAc
# Outline: as §1
# [4] = target: Neu5Ac(a2-3)Gal(b1-4)GlcNAc(b1-2)[Neu5Ac(a2-3)Gal(b1-4)GlcNAc(b1-6)]Man(a1-6)[Neu5Ac(a2-3)Gal(b1-4)GlcNAc(b1-2)Man(a1-3)][GlcNAc(b1-4)]Man(b1-4)GlcNAc(b1-4)GlcNAc
# Outline: as §1
# [5] = target: Neu5Ac(a2-3)Gal(b1-4)GlcNAc(b1-3)Gal
# Outline: as §1
# [6] = target: Neu5Ac(a2-3)Gal(b1-4)GlcNAc(b1-3)Gal(b1-3)GlcNAc
# Outline: as §1
# [7] = target: Neu5Ac(a2-3)Gal(b1-4)GlcNAc(b1-3)Gal(b1-4)GlcNAc
# Outline: as §1
# [8] = target: Neu5Ac(a2-3)Gal(b1-4)GlcNAc(b1-3)Gal(b1-4)GlcNAc(b1-2)Man(a1-3)[Neu5Ac(a2-3)Gal(b1-4)GlcNAc(b1-3)Gal(b1-4)GlcNAc(b1-2)Man(a1-6)]Man(b1-4)GlcNAc(b1-4)GlcNAc
# Outline: as §1
# [9] = target: Neu5Ac(a2-3)Gal(b1-4)GlcNAc(b1-3)Gal(b1-4)GlcNAc(b1-3)Gal(b1-4)GlcNAc
# Outline: as §1
# [10] = target: Neu5Ac(a2-3)Gal(b1-4)GlcNAc(b1-3)Gal(b1-4)GlcNAc(b1-3)Gal(b1-4)GlcNAc(b1-2)Man(a1-3)[Neu5Ac(a2-3)Gal(b1-4)GlcNAc(b1-3)Gal(b1-4)GlcNAc(b1-3)Gal(b1-4)GlcNAc(b1-2)Man(a1-6)]GalNAc
# Outline: as §1
# [11] = target: Neu5Ac(a2-3)Gal(b1-4)GlcNAc(b1-3)Gal(b1-4)GlcNAc(b1-3)GalNAc
# Outline: as §1
# [12] = target: Neu5Ac(a2-3)Gal(b1-4)GlcNAc(b1-3)Gal(b1-4)GlcNAc(b1-3)[Neu5Ac(a2-3)Gal(b1-4)GlcNAc(b1-3)Gal(b1-4)GlcNAc(b1-6)]GalNAc
# Outline: as §1
# [13] = target: Neu5Ac(a2-3)Gal(b1-4)GlcNAc(b1-3)Gal(b1-4)GlcNAc(b1-6)[Gal(b1-3)]GalNAc
# Outline: as §1
# [14] = target: Neu5Ac(a2-3)Gal(b1-4)GlcNAc(b1-3)Gal(b1-4)[Fuc(a1-3)]GlcNAc
# Outline: as §1
# [15] = target: Neu5Ac(a2-3)Gal(b1-4)GlcNAc(b1-3)GalNAc
# Outline: as §1
# [16] = target: Neu5Ac(a2-3)Gal(b1-4)GlcNAc(b1-3)[Neu5Ac(a2-3)Gal(b1-4)GlcNAc(b1-6)]GalNAc
# Outline: as §1
# [17] = target: Neu5Ac(a2-3)Gal(b1-4)GlcNAc(b1-6)GalNAc
# Outline: as §1
# [18] = target: Neu5Ac(a2-3)Gal(b1-4)GlcNAc(b1-6)[Gal(b1-3)]GalNAc
# Outline: as §1
# [19] = target: Neu5Ac(a2-3)Gal(b1-4)GlcNAc(b1-6)[Neu5Ac(a2-3)Gal(b1-3)]GalNAc
# Outline: as §1
# [20] = target: Neu5Ac(a2-3)Gal(b1-4)GlcNAc6S
# Outline: as §1
# [21] = target: Neu5Ac(a2-3)Gal(b1-4)[Fuc(a1-3)]GlcNAc
# Outline: as §1
# [22] = target: Neu5Ac(a2-3)Gal(b1-4)[Fuc(a1-3)]GlcNAc(b1-2)Man
# Outline: as §1
# [23] = target: Neu5Ac(a2-3)Gal(b1-4)[Fuc(a1-3)]GlcNAc(b1-3)Gal
# Outline: as §1
# [24] = target: Neu5Ac(a2-3)Gal(b1-4)[Fuc(a1-3)]GlcNAc(b1-3)Gal(b1-4)GlcNAc
# Outline: as §1
# [25] = target: Neu5Ac(a2-3)Gal(b1-4)[Fuc(a1-3)]GlcNAc(b1-3)Gal(b1-4)[Fuc(a1-3)]GlcNAc(b1-3)Gal(b1-4)[Fuc(a1-3)]GlcNAc
# Outline: as §1
# [26] = target: Neu5Ac(a2-3)Gal(b1-4)[Fuc(a1-3)]GlcNAc(b1-3)GalNAc
# Outline: as §1
# [27] = target: Neu5Ac(a2-3)Gal(b1-4)[Fuc(a1-3)]GlcNAc(b1-6)[Gal(b1-3)]GalNAc
# Outline: as §1
# [28] = target: Neu5Ac(a2-3)Gal(b1-4)[Fuc(a1-3)]GlcNAc(b1-6)[Neu5Ac(a2-3)Gal(b1-3)]GalNAc
# Outline: as §1
# [29] = target: Neu5Ac(a2-3)Gal(b1-4)[Fuc(a1-3)]GlcNAc6S
# Outline: as §1
# [30] = target: Neu5Ac(a2-3)Gal6S(b1-4)GlcNAc
# Outline: as §1
# [31] = target: Neu5Ac(a2-3)Gal6S(b1-4)[Fuc(a1-3)]GlcNAc
# Outline: as §1
# [32] = target: Neu5Ac(a2-3)GalNAc
# Outline: as §1
# [33] = target: Neu5Ac(a2-3)GalNAc(b1-4)GlcNAc
# Outline: as §1
# [34] = target: Neu5Ac(a2-3)[GalNAc(b1-4)]Gal(b1-4)Glc
# Outline: as §1
# [35] = target: Neu5Ac(a2-3)[GalNAc(b1-4)]Gal(b1-4)GlcNAc
# Outline: as §1
# [36] = target: Neu5Ac(a2-3)[GalNAc(b1-4)]Gal(b1-4)GlcNAc(b1-3)GalNAc
# Outline: as §1
# [37] = target: Neu5Ac(a2-3)[Neu5Ac(a2-6)]GalNAc
# Outline: as §1
binder,measurement,setting,value
"DC-Sign (Homo sapiens), Q9NNX6 (protein) MSDSKEPRLQQLGLLEEEQLRGLGFRQTRGYKSLAGCLGHGPLVLQLLSFTLLAGLLVQVSKVPSSISQEQSRQDAIYQNLTQLKAAVGELSEKSKLQEIYQELTQLKAAVGELPEKSKLQEIYQELTRLKAAVGELPEKSKLQEIYQELTWLKAAVGELPEKSKMQEIYQELTRLKAAVGELPEKSKQQEIYQELTRLKAAVGELPEKSKQQEIYQELTRLKAAVGELPEKSKQQEIYQELTQLKAAVERLCHPCPWEWTFFQGNCYFMSNSQRNWHDSITACKEVGAQLVVIKSAEEQNFLQLQSSRSNRFTWMGLSDLNQEGTWQWVDGSPLLPSFKQYWNRGEPNNVGEEDCAEFSGNGWNDDKCNLAKFWICKKSAASCSRDEEQFLSPAPATPNPPPA",glycan array binding signal (z-score),[1],-0.156
same,glycan array binding signal (z-score),[2],-0.187
same,glycan array binding signal (z-score),[3],-0.062
same,glycan array binding signal (z-score),[4],-0.187
same,glycan array binding signal (z-score),[5],-0.186
same,glycan array binding signal (z-score),[6],-0.14
same,glycan array binding signal (z-score),[7],-0.173
same,glycan array binding signal (z-score),[8],-0.177
same,glycan array binding signal (z-score),[9],-0.18
same,glycan array binding signal (z-score),[10],-0.115
same,glycan array binding signal (z-score),[11],-0.032
same,glycan array binding signal (z-score),[12],-0.143
same,glycan array binding signal (z-score),[13],-0.085
same,glycan array binding signal (z-score),[14],-0.205
same,glycan array binding signal (z-score),[15],-0.061
same,glycan array binding signal (z-score),[16],-0.074
same,glycan array binding signal (z-score),[17],-0.175
same,glycan array binding signal (z-score),[18],-0.171
same,glycan array binding signal (z-score),[19],-0.209
same,glycan array binding signal (z-score),[20],-0.194
same,glycan array binding signal (z-score),[21],-0.192
same,glycan array binding signal (z-score),[22],-0.16
same,glycan array binding signal (z-score),[23],-0.167
same,glycan array binding signal (z-score),[24],-0.111
same,glycan array binding signal (z-score),[25],-0.175
same,glycan array binding signal (z-score),[26],-0.065
same,glycan array binding signal (z-score),[27],-0.164
same,glycan array binding signal (z-score),[28],-0.114
same,glycan array binding signal (z-score),[29],-0.153
same,glycan array binding signal (z-score),[30],-0.193
same,glycan array binding signal (z-score),[31],-0.201
same,glycan array binding signal (z-score),[32],-0.171
same,glycan array binding signal (z-score),[33],-0.176
same,glycan array binding signal (z-score),[34],-0.167
same,glycan array binding signal (z-score),[35],-0.177
same,glycan array binding signal (z-score),[36],-0.171
same,glycan array binding signal (z-score),[37],-0.17
